About 16,000 (7.3%) of roughly 220,000 compounds were called active. The shares of active, inactive and inconclusive entries below differ from those in the screen. Calls follow the shape of the dose curve; as a rule, active = well fitted inhibition curve with a large enough effect (not every such curve was filed as active); inconclusive = small, poorly fitted or top-dose-only effect, or another doubt; inactive = no such curve, though single readings can be large or run the other way. No potency is given beside an inconclusive call; the fits are too rough.
Each molecule was assayed against Aldehyde dehydrogenase 1A1 (Homo sapiens) (UniProt P00352) (assay: qHTS Assay for Inhibitors of Aldehyde Dehydrogenase 1 (ALDH1A1)). Settings: Purified ALDH1A1, NADH fluorescence, propionaldehyde substrate; series mostly up to 75.3 µM; activity, negative = inhibition: at the top concentration.
UniProt P00352, sequence (P00352 whole entry, looked up): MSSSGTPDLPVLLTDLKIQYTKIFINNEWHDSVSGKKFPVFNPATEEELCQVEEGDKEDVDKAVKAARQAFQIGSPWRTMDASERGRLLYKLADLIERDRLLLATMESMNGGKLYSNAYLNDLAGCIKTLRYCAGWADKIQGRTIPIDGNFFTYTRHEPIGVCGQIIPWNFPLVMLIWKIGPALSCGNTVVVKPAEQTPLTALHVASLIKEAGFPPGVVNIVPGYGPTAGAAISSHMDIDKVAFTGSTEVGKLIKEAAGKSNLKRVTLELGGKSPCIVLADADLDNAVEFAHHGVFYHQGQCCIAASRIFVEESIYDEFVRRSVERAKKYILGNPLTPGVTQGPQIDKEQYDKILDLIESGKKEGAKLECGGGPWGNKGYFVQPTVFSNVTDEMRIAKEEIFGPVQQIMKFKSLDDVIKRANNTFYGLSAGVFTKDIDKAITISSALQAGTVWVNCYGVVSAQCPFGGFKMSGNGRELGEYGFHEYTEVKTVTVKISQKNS
`COC(=O)C(NC(=O)COc1ccccc1)(Nc1nc2c(s1)CCCC2)C(F)(F)F` (stereo not given) was tested, and the “activity, negative = inhibition” value was inactive: -2.6%. For `COc1ccc(N2CCN(C(=O)C34CCC(C)(C(=O)C3)C4(C)C)CC2)cc1` (stereo not given), the Potency was inconclusive [inhibitor, single point]. With `CC(C)c1nnc(NC(=O)C2CCCO2)s1` (stereo not given) the Potency was active: 3.77 µM. In the case of `CC1CN(c2nn3c(=O)c4ccccc4nc3c3ccccc23)CC(C)O1` (stereo not given), the Potency is reported as inconclusive [inhibitor, partial curve]. With `O=C1CC(NNc2nc3ccccc3s2)C(=O)N1c1ccccc1` (stereo not given) the Potency was inconclusive [inhibitor, partial curve]. For `Cn1cccc1Cc1nnc(SCC(=O)Nc2ccc3c(c2)OCO3)n1-c1ccc(F)cc1`, the Potency was inconclusive [inhibitor, single point]. With `O=C1c2ccccc2NC(c2cccs2)N1NS(=O)(=O)c1ccccc1` (stereo not given) the Potency was inconclusive [inhibitor, single point]. For `C#CCn1cc(/C=N/Nc2nc3ccccc3[nH]2)c2ccccc21`, the Potency was inconclusive [inhibitor, single point]. In the case of `COc1ccc2c(c1)[N+](=O)C(/C(C)=N/NC(N)=S)=C(C)[N+]2=O`, the Potency is reported as active: 3.16 µM. `Cc1ccc(Nc2c([N+](=O)[O-])c(=O)oc3ccccc23)cc1` was tested, and the Potency was inconclusive [inhibitor, single point]. For `Cc1ccc(OCC(=O)c2cc(C)n(C3CC3)c2C)c([N+](=O)[O-])n1`, the Potency was inconclusive [inhibitor, single point]. With `CN1/C(=C\C=C2/SC(=S)NC2=O)C(C)(C)c2ccccc21` the Potency was inconclusive [inhibitor, single point]. `CC(=O)NS(=O)(=O)c1ccc(NC(=O)CSc2ccc(C)cc2)cc1` was tested, and the Potency was inconclusive [inhibitor, single point]. With `COc1ccccc1CN(CC(=O)NCC1CCCO1)C(=O)CNS(=O)(=O)c1ccc(C)cc1` (stereo not given) the Potency was active: 12.6 µM. For `COc1cc(OC)cc(C2=NCCN2)c1`, the “activity, negative = inhibition” value was inactive: 5.18%. `CCOC(=O)c1cc2cc(OC)ccc2[nH]1` was tested, and the Potency was inconclusive [inhibitor, partial curve]. For `COc1ccc(C(C)(C)C)cc1NC(=O)c1cc(S(=O)(=O)N(C)C)ccc1N1CCCC1`, the “activity, negative = inhibition” value was inactive: -12.7%. In the case of `Cc1ccc2nc(-c3ccc(N4C(=O)CC(N5CCCC(C)C5)C4=O)cc3)sc2c1` (stereo not given), the Potency is reported as inconclusive [inhibitor, single point]. In the case of `Cc1cccc(S(=O)(=O)Nc2nc3ccccc3nc2Nc2ccc3c(c2)OCO3)c1`, the Potency is reported as inconclusive [inhibitor, single point]. `CCOc1ccc(OCCN2C(=O)NC(Cc3c[nH]c4ccccc34)C2=O)cc1` (stereo not given) was tested, and the “activity, negative = inhibition” value was inactive: 5.78%. In the case of `O=C(CSc1nnc(CN2CCOCC2)n1-c1ccccc1)N1CCc2ccccc21`, the Potency is reported as active: 7.94 µM. In the case of `Cc1ccc(C)c(OCCCNC2CCCC2)c1C`, the Potency is reported as inconclusive [inhibitor, single point]. In the case of `Cn1c(=O)c2c(nc(CN3CCC(C(N)=O)CC3)n2Cc2ccccc2F)n(C)c1=O`, the Potency is reported as active: 7.08 µM. In the case of `CCCNC(=O)OC[C@@H]1O[C@H](CCO/N=C2\c3cc(OC)ccc3O[C@H](c3cccc(OC)c3)[C@H]2O)C=C[C@@H]1Oc1ccc(OC)cc1`, the activity, negative = inhibition is reported as inactive: 3.07% [at 13.5 µM]. With `O=C(c1ccc(C(F)(F)F)cc1)N1CCC(=O)N(C(COCc2ccc(Cl)cc2)Cc2ccccc2)CC1` (stereo not given) the “activity, negative = inhibition” value was inactive: -7.74%. For `COc1ccccc1[C@@H]1C(c2ccccc2)=NN(c2ccccc2)[C@H]1C(=O)N1CCOC1=O`, the Potency was inconclusive [inhibitor, partial curve]. In the case of `CC1=CC(C)(C)Nc2ccc(OC(=O)CCN3C(=O)c4ccccc4C3=O)cc21`, the Potency is reported as inconclusive [inhibitor, single point]. With `Cc1ccc2c(c1)C1CN(C)CCC1N2C(=S)NC(=O)c1ccc(Br)cc1` (stereo not given) the Potency was active: 14.1 µM. With `CCC1=Nc2cc(C(=O)NCC3CCCO3)ccc2Sc2ccc(Br)cc21` (stereo not given) the “activity, negative = inhibition” value was inactive: 2.13%. `Cn1c(=O)c2[nH]c(/N=N\N3CCN(CCO)CC3)nc2n(C)c1=O` was tested, and the activity, negative = inhibition was inactive: 2.38% [at 13.5 µM]. In the case of `Cc1cccc(CSc2nc3c(c(=O)[nH]2)CCCC3)c1`, the “activity, negative = inhibition” value is reported as inactive: 10.5%. In the case of `C/C(CC(=O)N1CCN(C=O)CC1)=N\NC(=O)c1ccc(Br)cc1`, the Potency is reported as inconclusive [inhibitor, single point]. For `CC(C)Cn1cnc2c1c(=O)n(CC(O)c1ccccc1)c(=O)n2CC(C)C` (stereo not given), the Potency was inconclusive [inhibitor, single point]. In the case of `Cc1ccc(CNC(=O)CSCc2cccc(F)c2)cc1`, the Potency is reported as inconclusive [inhibitor, single point]. In the case of `C/C(Cc1ccccc1)=N\NC(=O)c1ccc(F)cc1`, the Potency is reported as inconclusive [inhibitor, single point]. For `CC1CCCCN1C(=S)NCCc1ccccc1` (stereo not given), the “activity, negative = inhibition” value was inactive: -10.5%. For `CC1CCN(C(=O)COC(=O)c2ccccc2NC(=O)c2ccco2)CC1`, the Potency was inconclusive [inhibitor, partial curve]. `COc1ccc2cc(CN(CC3COCCO3)S(=O)(=O)c3ccccc3)c(=O)[nH]c2c1` (stereo not given) was tested, and the Potency was inconclusive [inhibitor, partial curve]. `CC/C(=C/c1sc2ccc(C)cc2[n+]1CCO)SC` was tested, and the Potency was inconclusive [inhibitor, partial curve]. `Fc1ccc(NC(=S)Nc2cc(-c3ccccc3)[nH]n2)cc1Cl` was tested, and the Potency was active: 1.41 µM. `O=C(CCCOc1ccccc1)NC(=S)Nc1ccccc1` was tested, and the Potency was active: 10 µM. With `CC(=O)c1ccc(S(=O)(=O)Nc2ccc(-c3cn4c(n3)SCC4)cc2)cc1` the Potency was inconclusive [inhibitor, single point]. In the case of `COc1ccc(S(=O)(=O)NCCOc2ccccc2)cc1-n1cnnn1`, the Potency is reported as active: 8.91 µM. In the case of `Cc1ccc(S(=O)(=O)c2c(N)n(NC(=O)c3ccccc3C)c3nc4ccccc4nc23)cc1`, the Potency is reported as inconclusive [inhibitor, partial curve]. In the case of `CCN(c1ccccc1)S(=O)(=O)c1ccc(C(=O)Nc2nnc(-c3ccco3)o2)cc1`, the Potency is reported as inconclusive [inhibitor, partial curve].
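For activity, negative = inhibition in this document: plate controls were no enzyme wells and a reference inhibitor.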
Potency is read from the fitted curve at half-maximal effect; tags tell the direction and shape of the fitted curve.
